Experimental data reported in PubChem BioAssay AID686978 (National Center for Advancing Translational Sciences (NCATS), 2013).
Values joined by “and” are separate entries in the source; they are usually repeats but may differ in a detail not shown here. Equal values may be shown once. In all, about 420,000 compounds went through this assay and about 64,000 (15%) were called active. The inconclusive results got no clear call from the source; some entries with a clear call stand among them for comparison. Calls follow the shape of the dose curve; as a rule, active = well fitted inhibition curve with a large enough effect; inconclusive = small, poorly fitted or top-dose-only effect; inactive = flat fitted curve, though single readings scatter. Potencies of inconclusive entries are doubtful fits and often do not repeat.

Test: qHTS for Inhibitors of human tyrosyl-DNA phosphodiesterase 1 (TDP1): qHTS in cells in absence of CPT; also: nearly all actives have a fitted effect of over 55% in size
Conditions: DT40 Tdp1-/- hTDP1 cells, no CPT, ATP luminescence, 48 h; activity change, negative = growth inhibition: at 46.2 µM (top of the series) unless noted
Outline: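 Stably hTDP1-transfected Tdp1-null chicken DT40 cells were treated with library compounds minus camptothecin and grown for at least 48 hr at 37 °C, after which cellular ATP was quantified by luminescence.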
% is scaled to controls: 0 for no effect and ±100 for the full control effect; potency is read from the fitted curve at half-maximal effect; tags tell the direction and shape of the fitted curve.

SMILES	Potency	activity change, negative = growth inhibition
O=C(O)CSc1nc(-c2ccc(Cl)cc2)nc2c1oc1ccccc12	inconclusive: 23.1 µM [inhibitor, single point]	
CN(C)S(=O)(=O)c1ccc(C(=O)Nc2nc3ccccc3[nH]2)cc1		inactive: -6.81%
CCOC(=O)c1cc(C(=O)c2cccs2)n2ccc(C(C)=O)cc12	active: 23.1 µM	
O=C1c2ccccc2S(=O)(=O)c2cc(C(=O)N3CCC(N4CCCC4)CC3)ccc21		inactive: -6.66%
N#C/C(=C\c1ccc(-c2ccc(S(=O)(=O)N3CCOCC3)cc2)o1)C(=O)NC1CC1	active: 20.6 µM	
Cc1sc2ncnc(N3CCC(C(=O)N(C)CC(=O)Nc4ccccc4Br)CC3)c2c1C	inconclusive: 29.1 µM [inhibitor, single point]	
Cc1nc(-c2ccc(F)cc2)sc1CCNC(=O)c1cccs1	inconclusive: 29.1 µM [inhibitor, single point]	
N=C1C(c2ccccc2)=C(O)CN1c1cccc2ccccc12	inconclusive: 29.1 µM [inhibitor, single point]	
CC(C)CCCC(C)CCCC(C)CCCCC(C)CCCC(C)CCCC(C)C (stereo not given)		inactive: -3.28%
COc1ccc(Cn2c(=O)c3[nH]cnc3n(-c3ccc(C)cc3)c2=O)cc1	inconclusive: 23.1 µM [inhibitor, single point]	
[O-]/[N+](=C/c1ccccc1)c1ccccc1	inconclusive: 20.6 µM [inhibitor, single point]	
Cc1ccc(N(CC(=O)N2CCN(c3ccccc3)CC2)S(=O)(=O)c2c(C)noc2C)cc1	inconclusive: 18.4 µM [inhibitor, single point]	
O=C(CNC(=O)c1ccccc1)OCC(=O)c1cccc2ccccc12	inconclusive: 8.91 µM [inhibitor, partial curve]	
CC(NC(=O)c1ccc(NC(=O)CC2SC(N3CCCC3)=NC2=O)cc1)c1ccccc1 (stereo not given)		inactive: -2.06%
Fc1ccccc1CSc1ncnc2c1oc1ccccc12	inconclusive: 4.11 µM [inhibitor, full curve]	
C#CCNC(=O)C1=C[C@@H](c2ccc(C(F)(F)F)cc2)C[C@@H](OCCCCO)O1		inconclusive: -34.5% [inhibitor]
Cc1cc(C(=O)CSc2nn3c(=O)c(C(C)(C)C)nnc3s2)c(C)n1C1CC1	inconclusive: 29.1 µM [inhibitor, single point]	
O=C(CN1C(=O)CSc2ccc(S(=O)(=O)N3CCOCC3)cc21)NCCCN1CCCCC1	inactive	
C=CCc1ccc(OCCCOc2ccc(C(=O)O)cc2)c(OC)c1		inactive: -2.89%
Cc1ccc(S(=O)(=O)Cc2ccc(C(=O)N3CCCCCC3)o2)cc1		inactive: -27%
COc1ccc(NC(=O)CSc2nc3ccccc3nc2N2CCCCC2)cc1	inconclusive: 23.1 µM [inhibitor, single point] and inconclusive: 18.4 µM [inhibitor, single point]	
CNCCC(=O)N1c2ccccc2CCc2ccc(NC(=O)OC)cc21	inconclusive: 29.1 µM [inhibitor, single point]	
O=c1c2ccccc2nc(SCc2ccccc2Cl)n1Cc1ccccc1		inactive: -6.56%
COc1cc(O)cc(/C=C/c2ccccc2)c1	inconclusive: 25.9 µM [inhibitor, single point]	

SMILES	Potency	activity change, negative = growth inhibition
CCC1CCc2sc(C(=O)NNC(=S)NCC3CCCO3)cc2C1 (stereo not given)	inconclusive: 29.1 µM [inhibitor, single point]	
CCC(C)(C)c1nnc(NC(=O)c2ccc([N+](=O)[O-])cc2)s1		inactive: -2.39%
CCOC(=O)C1=CC[C@@H](c2cccc(C)c2)N(S(=O)(=O)c2ccc(C)cc2)[C@H]1C(=O)OCC	active: 16.4 µM	
O=C1NC(c2ccccc2)=C(c2ccc3ccccc3n2)C(c2ccncc2)N1 (stereo not given)		inactive: -2.28%
COC(=O)c1c(NC(=O)COC(=O)Cn2cnc3ccccc32)sc2c1CCCC2	inconclusive: 0.259 µM [inhibitor, full curve]	
CCOc1ccc(NC(=O)Cn2nc3c(cc2=O)CC(C)CC3)cc1 (stereo not given)		inactive: -9.18%
CC(=O)c1sc(NC(=O)Cc2c(F)cccc2Cl)nc1C		inconclusive: -36.1% [inhibitor]
N=c1n(Cc2ccccc2)c2ccccc2n1Cc1ccccc1	active: 20.6 µM	
CN1CCN(C(=O)CN(C2CCCCC2)S(=O)(=O)c2ccccc2)CC1		inactive: -0.96%
CCOC(=O)c1ccccc1NC(=O)N1CCC(CN2CCOCC2)CC1		inactive: -25.6%
Cn1cccc1C(=O)OCC(=O)NCc1cccs1		inactive: -19%
COc1ccc2sc(-c3ccc(N(C)C)cc3)c(C#Cc3cncn3C)c2c1	active: 5.8 µM	
COc1cccc(-c2nc(CS(=O)(=O)CC(=O)Nc3ccccc3Cl)c(C)o2)c1	inconclusive: 18.4 µM [inhibitor, single point]	
COc1ccc(NC(=O)CN2C(=O)NC(c3ccccc3)(c3ccccc3)C2=O)cc1	inconclusive: 25.9 µM [inhibitor, single point]	
O=C1Nc2ccccc2C(O)(C(=O)NCc2ccco2)N1c1ccc(Cl)cc1 (stereo not given)	inconclusive: 23.1 µM [inhibitor, partial curve]	
O=C(C1=C[C@H](c2coc3ccccc3c2=O)C[C@H](OCc2ccc(CO)cc2)O1)N1CCN(Cc2ccc3c(c2)OCO3)CC1	active: 7.31 µM	
COc1ccc(Cl)cc1NC(=O)CCN1C(=O)C2C3CCC(C3)C2C1=O (stereo not given)		inactive: 3.99%
Cc1cccc(CNc2ncncc2-c2ccc3c(c2)OCO3)c1	inconclusive: 16.4 µM [inhibitor, single point]	
CCOC(=O)c1ccc(NC(=O)NC2=NCCS2)cc1	inconclusive: 25.9 µM [inhibitor, single point]	
O=C(NCc1cccnc1)c1ccc([N+](=O)[O-])o1	inconclusive: 29.1 µM [inhibitor, single point]	
CC(C)Oc1ccc(C(=O)NCC(c2ccc(N(C)C)cc2)N2CCc3ccccc32)cc1 (stereo not given)	active: 20.6 µM	
COc1ccc(C2=NN(C(=O)c3ccco3)C(c3ccco3)C2)cc1OC (stereo not given)	active: 18.4 µM	
Cc1ccc(N2C(=O)c3cccc4c(N)ccc(c34)C2=O)c2cccnc12	active: 0.0206 µM	
Fc1ccc(-n2cc(-c3ccccc3)c3c(=S)nc[nH]c32)cc1	inconclusive: 25.9 µM [inhibitor, single point]	

SMILES	Potency	activity change, negative = growth inhibition
CNC(=S)N/N=C/c1cc(C)n(-c2ccc(Cl)c(Cl)c2)c1C	inconclusive: 29.1 µM [inhibitor, single point]	
Cc1ccc(C)c(N2CCN(C(=O)c3ccc(Cn4c(=O)[nH]c5ccccc5c4=O)cc3)CC2)c1	inconclusive: 20.6 µM [inhibitor, single point]	
CCn1c(=O)c2sccc2n2c(CCC(=O)Nc3ccc(F)cc3)nnc12	inconclusive: 29.1 µM [inhibitor, single point]	
CC(C)(C)c1ccc(C(=O)c2c[nH]c(C(=O)NCc3ccco3)c2)cc1	inconclusive: 7.31 µM [inhibitor, partial curve, poor fit]	
COc1ccc(NS(=O)(=O)c2ccc(C(=O)N(C)Cc3ccc(C)o3)cc2)cc1	active: 14.6 µM	
CCCCCC(=O)Nc1cc(N(C)C)nc2ccccc12	inconclusive: 29.1 µM [inhibitor, single point]	
O=C(NCCO)c1ccc2c3n(nc2c1)-c1ccc(Cl)cc1CO3	inconclusive: 29.1 µM [inhibitor, single point]	
CCC[C@@H](CN1CCC[C@H]1CN1C(N)=NC[C@@H]1Cc1ccccc1)N1C[C@@H](Cc2ccccc2)N(CCCC2CCCC2)C1=N	inconclusive: 25.9 µM [inhibitor, single point]	
O=C(Nc1ccc(Br)cc1)c1cc(S(=O)(=O)NC2CCCC2)ccc1F	active: 20.6 µM	
Cc1ccc(/C=C/C(=O)NCc2ccc3c(c2)OCO3)o1	inconclusive: 4.61 µM [inhibitor, single point]	
CC(=O)c1cccc(NC(=O)C(OC(=O)c2ccccc2NS(=O)(=O)c2cccs2)c2ccccc2)c1 (stereo not given)	inconclusive: 8.2 µM [inhibitor, partial curve]	
Cc1nnc(SCC(=O)N2CCN(Cc3ccccc3)CC2)s1	inconclusive: 6.51 µM [inhibitor, full curve]	
CC1CCN(CCOc2ccc(C(=O)c3ccccc3)cc2)CC1	inconclusive: 20.6 µM [inhibitor, single point]	
Fc1ccccc1COc1ccc(-c2nnn(Cc3ccccc3F)n2)cc1		inconclusive: -30.8% [inhibitor]
Cc1ccccc1CN1C(=O)CSCC1(C)C(=O)Nc1ccc2c(c1)OCCO2 (stereo not given)	inconclusive: 18.4 µM [inhibitor, single point]	
Nc1nnn(CC(=O)N/N=C/c2ccccc2Cl)n1		inactive: 7.31%
CCOC(=O)C1(Cc2cccc(Cl)c2)CCCN(C(=O)c2cc(C)on2)C1 (stereo not given)	active: 20.6 µM	
CCc1ccc(C(=O)C(C)OC(=O)c2nn(C)c(=O)c3ccccc23)cc1 (stereo not given)		inactive: -20.9%
CC(C)Oc1ccc(S(=O)(=O)N2CCCCC2)cc1NC(=O)C1CSC2(C)CCC(=O)N12 (stereo not given)	inconclusive: 18.4 µM [inhibitor, single point]	
O=C(Cn1nc2ccccc2n1)N/N=C/c1cc(Cl)cc([N+](=O)[O-])c1O	inconclusive: 29.1 µM [inhibitor, single point]	
CCCCCCCCN1C(=O)[C@H](CC(=O)NCc2cccc3ccccc23)C[C@@]2(C(=O)OCC)CCC=C12	active: 20.6 µM	
COc1cc2cc(CN(Cc3cccnc3)C(=O)NCc3ccccc3)c(=O)[nH]c2cc1OC	inconclusive: 20.6 µM [inhibitor, partial curve]	
